{"source": "paper PMC4336329", "about": "(PLoS ONE, 2015)", "note": "Among all 310,000 compounds or so, about 2,200 (0.71%) showed an effect of 50% or more. The effect is printed as a negative number. Some of the results follow.", "data": [{"target": "human ether-à-go-go-related gene (hERG) potassium channel (human, UniProt Q12809)", "sequence (Q12809 whole entry, looked up)": "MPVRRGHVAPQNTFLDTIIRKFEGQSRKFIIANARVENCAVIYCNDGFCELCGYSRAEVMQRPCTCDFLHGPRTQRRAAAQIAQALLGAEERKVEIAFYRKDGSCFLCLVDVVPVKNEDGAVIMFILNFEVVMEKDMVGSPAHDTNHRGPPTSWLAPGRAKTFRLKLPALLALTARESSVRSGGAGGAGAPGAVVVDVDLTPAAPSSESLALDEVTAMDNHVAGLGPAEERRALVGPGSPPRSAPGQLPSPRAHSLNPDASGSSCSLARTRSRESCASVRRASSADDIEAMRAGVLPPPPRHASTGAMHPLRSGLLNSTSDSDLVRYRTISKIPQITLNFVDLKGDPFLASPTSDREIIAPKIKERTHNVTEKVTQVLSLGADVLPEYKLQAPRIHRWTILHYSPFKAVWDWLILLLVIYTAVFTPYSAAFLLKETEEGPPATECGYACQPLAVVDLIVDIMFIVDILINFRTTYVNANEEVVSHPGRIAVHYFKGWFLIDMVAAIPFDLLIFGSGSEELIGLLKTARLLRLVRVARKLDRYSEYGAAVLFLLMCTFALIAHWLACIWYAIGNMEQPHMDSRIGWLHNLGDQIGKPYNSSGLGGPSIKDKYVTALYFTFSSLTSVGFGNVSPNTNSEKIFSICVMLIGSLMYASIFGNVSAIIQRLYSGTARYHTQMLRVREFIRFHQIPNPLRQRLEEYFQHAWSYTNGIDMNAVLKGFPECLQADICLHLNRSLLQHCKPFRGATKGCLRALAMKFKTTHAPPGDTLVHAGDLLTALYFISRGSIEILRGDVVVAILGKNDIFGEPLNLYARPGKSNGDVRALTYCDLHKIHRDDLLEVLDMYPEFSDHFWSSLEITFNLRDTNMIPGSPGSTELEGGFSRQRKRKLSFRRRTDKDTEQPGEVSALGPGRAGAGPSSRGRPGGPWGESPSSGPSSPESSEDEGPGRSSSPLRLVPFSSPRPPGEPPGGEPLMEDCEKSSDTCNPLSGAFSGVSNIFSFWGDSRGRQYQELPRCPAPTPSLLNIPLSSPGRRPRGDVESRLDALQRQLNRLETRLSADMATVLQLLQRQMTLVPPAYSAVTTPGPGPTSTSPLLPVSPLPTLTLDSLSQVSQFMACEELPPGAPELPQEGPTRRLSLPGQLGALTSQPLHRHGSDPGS", "assay": "primary screen, population patch clamp on CHO cells stably expressing hERG", "units": {"hERG current change (%, negative = inhibition) at 1uM": "%"}, "values": [{"smiles": "CCc1ccccc1NCC(=O)Nc1ccc(Cl)c(C(F)(F)F)c1", "hERG current change (%, negative = inhibition) at 1uM": 16.6}, {"smiles": "CCc1ccc(N(CC(=O)N2CCOCC2)S(C)(=O)=O)cc1", "hERG current change (%, negative = inhibition) at 1uM": 13.7}, {"smiles": "CCOc1ccc(C(=O)NCC(=O)NCCCn2nc(C)cc2C)cc1OCC", "hERG current change (%, negative = inhibition) at 1uM": 11.6}, {"smiles": "Cc1cc(-c2ccccc2)n2ncnc2n1", "hERG current change (%, negative = inhibition) at 1uM": 13}, {"smiles": "Cc1ccc(C)c(Cn2nnc3c(=O)[nH]c(C4CCCN(C(=O)C5CCC5)C4)nc32)c1", "note": "(stereo not shown)", "hERG current change (%, negative = inhibition) at 1uM": -3.21}, {"smiles": "CC(=O)O[C@H]1CSC[C@H]1NC(=O)c1ccccc1", "hERG current change (%, negative = inhibition) at 1uM": -0.55}, {"smiles": "C[C@H](NC(=O)c1nc[nH]c1C(=O)N[C@@H](Cc1ccccc1)C(=O)OCc1ccccc1)C(=O)OCc1ccccc1", "hERG current change (%, negative = inhibition) at 1uM": 3.98}, {"smiles": "Cc1cc2c(ccc3c2no[n+]3[O-])nn1", "hERG current change (%, negative = inhibition) at 1uM": -8.19}, {"smiles": "OC1/C(=C/c2ccc(Cl)cc2Cl)N2CCC1CC2", "note": "(stereo not shown)", "hERG current change (%, negative = inhibition) at 1uM": 3.13}, {"smiles": "Cc1ccccc1-n1ncc2c1CC(C)(C)CC2NC(=O)CSc1ccncc1", "note": "(stereo not shown)", "hERG current change (%, negative = inhibition) at 1uM": -2.76}, {"smiles": "NS(=O)(=O)c1ccc(CNC(=O)/C=C/c2ccccc2[N+](=O)[O-])cc1", "hERG current change (%, negative = inhibition) at 1uM": 8.06}, {"smiles": "CC(Sc1cnc2ccccc2n1)C(=O)O", "note": "(stereo not shown)", "hERG current change (%, negative = inhibition) at 1uM": 13.7}, {"smiles": "COC(=O)c1ccc(CSc2nc(C(F)(F)F)c3c(c2C#N)CCC3)o1", "hERG current change (%, negative = inhibition) at 1uM": 2.61}, {"smiles": "Fc1ccccc1OCCCCCN1CCCC1", "hERG current change (%, negative = inhibition) at 1uM": 4.93}, {"smiles": "COC(=O)c1nnn(-c2ccc(F)c(Cl)c2)c1C(=O)OC", "hERG current change (%, negative = inhibition) at 1uM": 12.2}, {"smiles": "COc1ccc(CN2C(=O)c3ccccc3C2C(=O)NC2CCCC2)c(OC)c1", "note": "(stereo not shown)", "hERG current change (%, negative = inhibition) at 1uM": -3.81}, {"smiles": "Cc1cc(N2CCOCC2)n2ncc(-c3ccccc3)c2n1", "hERG current change (%, negative = inhibition) at 1uM": -2.91}, {"smiles": "C=C(C)c1cccc(C(C)(C)NC(=O)Nc2ccc(Cl)cn2)c1", "hERG current change (%, negative = inhibition) at 1uM": 4.85}, {"smiles": "CC(=O)CCn1c(=O)n(CCC(C)=O)c(=O)n(CCC(C)=O)c1=O", "hERG current change (%, negative = inhibition) at 1uM": 10.6}, {"smiles": "CC(C)n1cc(CN2CCCC(CO)(Cc3cccc(Cl)c3)C2)cn1", "note": "(stereo not shown)", "hERG current change (%, negative = inhibition) at 1uM": 3.37}, {"smiles": "Cc1cc(-c2ccco2)n(CC(=O)NCCN(C)C)n1", "hERG current change (%, negative = inhibition) at 1uM": 13}, {"smiles": "CC1CCCCC1NC(=O)c1ccc(S(=O)(=O)N2CCN(C)CC2)cc1", "note": "(stereo not shown)", "hERG current change (%, negative = inhibition) at 1uM": 11.9}, {"smiles": "Cc1ccc(Cl)cc1N1CCN(S(=O)(=O)c2c(C)[nH]c(C)c2C(=O)N2CCCCC2)CC1", "hERG current change (%, negative = inhibition) at 1uM": 14.4}, {"smiles": "CCOC(=O)C(C(=O)Nc1ccc(C)cc1)C1CCCCC1", "note": "(stereo not shown)", "hERG current change (%, negative = inhibition) at 1uM": 4.96}, {"smiles": "O=C(COC(=O)/C=C/c1ccccc1Cl)NC1CCCC1", "hERG current change (%, negative = inhibition) at 1uM": 6.08}, {"smiles": "Fc1ccc2cnc(-c3ccccc3)c(-c3cccc(C(F)(F)F)c3)c2c1", "hERG current change (%, negative = inhibition) at 1uM": 22.5}, {"smiles": "Cc1cccc(C)c1NC(=O)CSc1nnc(-c2cnccn2)n1C", "hERG current change (%, negative = inhibition) at 1uM": 12.7}, {"smiles": "C/C(=N/NS(=O)(=O)c1cccc([N+](=O)[O-])c1)c1ccncc1", "hERG current change (%, negative = inhibition) at 1uM": 7.07}, {"smiles": "O=[N+]([O-])c1cccc(Cl)c1NCCNS(=O)(=O)c1ccccc1", "hERG current change (%, negative = inhibition) at 1uM": 0.78}, {"smiles": "Cc1cc2oc(=O)cc(CN3CCOCC3)c2cc1Cl", "hERG current change (%, negative = inhibition) at 1uM": 16.6}, {"smiles": "CCN(CC(O)c1cccc(O)c1)C(=O)C12CC3CC(CC(C3)C1)C2.Cl", "note": "(stereo not shown)", "hERG current change (%, negative = inhibition) at 1uM": 9.66}, {"smiles": "CCS(=O)(=O)c1nc(S(=O)(=O)c2ccc(C)cc2)c(N2CC(C)OC(C)C2)s1", "note": "(stereo not shown)", "hERG current change (%, negative = inhibition) at 1uM": 10.1}, {"smiles": "COc1cc(C(c2c(C)[nH][nH]c2=O)c2c(C)[nH][nH]c2=O)ccc1OS(=O)(=O)c1ccccc1", "hERG current change (%, negative = inhibition) at 1uM": 2.84}, {"smiles": "Cc1onc(-c2ccccc2)c1C(=O)Nc1nnc(CC(C)C)s1", "hERG current change (%, negative = inhibition) at 1uM": 8.63}, {"smiles": "CCC(=O)Nc1ccc2nc(SCC(=O)N3CCOCC3)sc2c1", "hERG current change (%, negative = inhibition) at 1uM": 6.41}, {"smiles": "COc1ccc(S(=O)(=O)N(C)c2ccc(C(=O)N3CCCCC3)cc2)cc1OC", "hERG current change (%, negative = inhibition) at 1uM": 2.42}, {"smiles": "COC(=O)C(C(=O)OC)N1C(=O)CCC1=O", "hERG current change (%, negative = inhibition) at 1uM": -4.43}, {"smiles": "O=C(O)/C=C/C(=O)N(CC1CCCO1)C1CC(=O)N(c2c(Cl)cccc2Cl)C1=O", "note": "(stereo not shown)", "hERG current change (%, negative = inhibition) at 1uM": 12.2}, {"smiles": "COC(=O)c1c(C)nc(C)c(C(=O)OC)c1-c1cccs1", "hERG current change (%, negative = inhibition) at 1uM": 3.4}, {"smiles": "CCC(Oc1ccccc1)C(=O)Nc1cc(Cl)ccc1-n1cncn1", "note": "(stereo not shown)", "hERG current change (%, negative = inhibition) at 1uM": 14.7}, {"smiles": "Fc1cc(Br)ccc1NC(=S)Nc1ccccc1", "hERG current change (%, negative = inhibition) at 1uM": 9.18}, {"smiles": "CCOC(=O)N1CCN(c2ncnc3scc(-c4ccccc4)c23)CC1", "hERG current change (%, negative = inhibition) at 1uM": 11.5}, {"smiles": "Cc1nc(NCCc2ccccc2)c2nnn(Cc3ccccc3Cl)c2n1", "hERG current change (%, negative = inhibition) at 1uM": 15.9}]}]}
